In the supplement of paper PMC4967469:
A lower IC50 marks a more sensitive line; a limit (>, <) means that the fit lies beyond the doses tested. AUC sums up the same curve from the lowest dose to the 256-fold higher top dose; the more sensitive the line, the further below 1. The top dose, if marked as inferred, was calculated from the reported fits.

Compound: N.N.[Cl][Pt][Cl] [Cisplatin]
Assay: Viability of human cancer cell lines after 72 h of drug (GDSC screen)
Settings: top dose inferred
Procedure: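 Human cancer cell lines in 384-well plates, medium with 10% serum, drug for 72 h over a 256-fold dose range (nine 2-fold or five 4-fold steps up to the top dose). Adherent lines were fixed and stained with the nucleic acid dye Syto60, suspension lines read with resazurin; signal relative to control wells, capped at 0 and 100%. One two-parameter sigmoid per drug and line, fitted in a mixed model over all curves with the slope shared within a line.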

Row | Cell Line | AUC | IC50
1 | RCC-JF (kidney, adherent, top dose 10 µM) | 0.53 | 0.761 µM
2 | RCC-JW (kidney, adherent, top dose 10 µM) | 0.506 | 0.65 µM
3 | RCC-MF (kidney, adherent, top dose 10 µM) | 0.428 | 0.376 µM
4 | RCH-ACV (B-cell leukaemia, suspension, top dose 10 µM) | 0.754 | 2.84 µM
5 | RCM-1 (large intestine, adherent, top dose 10 µM) | 0.949 | > 10 µM
6 | REH (B-cell leukaemia, suspension, top dose 10 µM) | 0.87 | 8.71 µM
7 | RERF-LC-KJ (lung adenocarcinoma, adherent, top dose 10 µM) | 0.903 | > 10 µM
8 | RERF-LC-MS (lung adenocarcinoma, adherent, top dose 10 µM) | 0.93 | > 10 µM
9 | RERF-LC-Sq1 (lung squamous cell carcinoma, adherent, top dose 10 µM) | 0.946 | > 10 µM
10 | RF-48 (stomach, adherent, top dose 10 µM) | 0.952 | > 10 µM
11 | RH-1 (rhabdomyosarcoma, adherent, top dose 10 µM) | 0.902 | 9.22 µM
12 | RH-18 (rhabdomyosarcoma, adherent, top dose 10 µM) | 0.973 | > 10 µM
13 | RH-41 (rhabdomyosarcoma, adherent, top dose 10 µM) | 0.929 | > 10 µM
14 | RKN (ovary, adherent, top dose 10 µM) | 0.896 | > 10 µM
15 | RKO (large intestine, adherent, top dose 10 µM) | 0.943 | > 10 µM
16 | RL95-2 (endometrium, adherent, top dose 10 µM) | 0.911 | > 10 µM
17 | RL (B-cell lymphoma, suspension, top dose 10 µM) | 0.99 | > 10 µM
18 | RMG-I (ovary, adherent, top dose 10 µM) | 0.983 | > 10 µM
19 | RO82-W-1 (thyroid, adherent, top dose 10 µM) | 0.915 | > 10 µM
20 | ROS-50 (B-cell leukaemia, suspension, top dose 6 µM) | 0.948 | > 6 µM
21 | RPMI-2650 (head and neck, adherent, top dose 10 µM) | 0.947 | > 10 µM

Row | Cell Line | AUC | IC50
22 | RPMI-6666 (Hodgkin lymphoma, suspension, top dose 10 µM) | 0.827 | 7.82 µM
23 | RPMI-7951 (melanoma, adherent, top dose 10 µM) | 0.797 | 4.55 µM
24 | RPMI-8226 (myeloma, suspension, top dose 10 µM) | 0.932 | > 10 µM
25 | RPMI-8402 (T-cell lymphoblastic leukaemia, suspension, top dose 10 µM) | 0.877 | 7.32 µM
26 | RPMI-8866 (chronic myeloid leukaemia, suspension, top dose 10 µM) | 0.834 | 5.85 µM
27 | RT4 (bladder, adherent, top dose 10 µM) | 0.902 | > 10 µM
28 | RVH-421 (melanoma, adherent, top dose 10 µM) | 0.931 | > 10 µM
29 | RXF393 (kidney, adherent, top dose 10 µM) | 0.797 | 6.98 µM
30 | Raji (Burkitt lymphoma, suspension, top dose 10 µM) | 0.951 | > 10 µM
31 | Ramos-2G6-4C10 (Burkitt lymphoma, suspension, top dose 10 µM) | 0.948 | > 10 µM
32 | SAS (head and neck, adherent, top dose 10 µM) | 0.807 | 5.84 µM
33 | SAT (head and neck, adherent, top dose 10 µM) | 0.817 | > 10 µM
34 | SBC-1 (small cell lung carcinoma, suspension, top dose 10 µM) | 0.986 | > 10 µM
35 | SBC-3 (small cell lung carcinoma, adherent, top dose 10 µM) | 0.77 | 3.48 µM
36 | SBC-5 (small cell lung carcinoma, adherent, top dose 10 µM) | 0.965 | > 10 µM
37 | SCC90 (head and neck, adherent, top dose 10 µM) | 0.873 | > 10 µM
38 | SCC-4 (head and neck, adherent, top dose 10 µM) | 0.902 | > 10 µM
39 | SCC-9 (head and neck, adherent, top dose 10 µM) | 0.919 | > 10 µM
40 | SCC-25 (head and neck, adherent, top dose 10 µM) | 0.949 | > 10 µM
41 | SCH (stomach, adherent, top dose 10 µM) | 0.879 | > 10 µM
42 | SF126 (glioma, adherent, top dose 10 µM) | 0.855 | 8.71 µM

Row | Cell Line | AUC | IC50
43 | SF268 (glioma, adherent, top dose 10 µM) | 0.657 | 1.76 µM
44 | SF295 (glioma, adherent, top dose 10 µM) | 0.873 | > 10 µM
45 | SF539 (glioma, adherent, top dose 10 µM) | 0.79 | 3.98 µM
46 | SH-4 (melanoma, adherent, top dose 10 µM) | 0.938 | > 10 µM
47 | SHP-77 (small cell lung carcinoma, semi-adherent, top dose 10 µM) | 0.991 | > 10 µM
48 | SIMA (neuroblastoma, adherent, top dose 10 µM) | 0.876 | > 10 µM
49 | SISO (cervix, adherent, top dose 10 µM) | 0.644 | 1.53 µM
50 | SJRH30 (rhabdomyosarcoma, adherent, top dose 10 µM) | 0.891 | > 10 µM
51 | SJSA-1 (bone, adherent, top dose 10 µM) | 0.901 | > 10 µM
52 | SK-ES-1 (Ewing sarcoma, semi-adherent, top dose 10 µM) | 0.76 | 3.73 µM
53 | SK-GT-2 (stomach, adherent, top dose 10 µM) | 0.859 | 8.97 µM
54 | SK-GT-4 (oesophagus, adherent, top dose 10 µM) | 0.901 | > 10 µM
55 | SK-HEP-1 (liver, adherent, top dose 10 µM) | 0.926 | > 10 µM
56 | SK-LMS-1 (soft tissue, adherent, top dose 10 µM) | 0.834 | 6.07 µM
57 | SK-MEL-1 (melanoma, suspension, top dose 10 µM) | 0.989 | > 10 µM
58 | SK-MEL-2 (melanoma, adherent, top dose 10 µM) | 0.863 | 9.23 µM
59 | SK-MEL-3 (melanoma, adherent, top dose 10 µM) | 0.98 | > 10 µM
60 | SK-MEL-5 (melanoma, adherent, top dose 10 µM) | 0.845 | 9.73 µM
61 | SK-MEL-24 (melanoma, adherent, top dose 10 µM) | 0.879 | > 10 µM
